Reference: US11365205B2 (Aurigene Discovery Technologies Limited, priority 2018, dated 2022)

Molecular target: PRMT5/MEP50 Complex (Homo sapiens (Human), UniProt O14744)
Assay: PRMT5 inhibition based on TR-FRET assay
Format: biochemical
Conditions: 32 nM PRMT5:MEP50, 50 nM Histone-H4 peptide, 1 μM SAM
Description: PRMT5 Inhibition Based on TR-FRET Assay:
Protein arginine methyltransferase 5 (PRMT5) is a type II arginine methyltransferase that catalyze mono- and symmetric demethylation on arginine residues of histone or non-histone proteins in presence of S-adenosylmethionine (AdoMet or SAM) a cofactor responsible for donating the methyl group. PRMT5 is reported to be overexpressed in several human cancers. To identify compounds that inhibit the PRMT5 and decrease its activity, a TR-FRET based assay has been established. Time-resolved fluorescence resonance energy transfer (TR-FRET) HTS assays are homogeneous proximity assays where the interaction of two dye-labeled binding partners is detected by the energy transfer between a donor and an acceptor dye and the subsequent light emission by the acceptor dye. PRMT5 catalyzes Histone H4 peptide which is biotin tagged to the Lysine amino acid at carboxyl end, in presence of S-adenosyl-1-methionine (SAM) to methylate the peptide. The antibody specific to mono methylated H4 peptide (H4R3) with Ig conjugate binds to the methylated peptide, indirectly binding to the Europium lanthanide. […]
The compound dilutions were prepared as 7.5% DMSO stock solutions in assay buffer. […] The plates were then read on Victor-3 with Excitation at 340 nm and Emissions collected at 615 and 665 nm in TR-FRET protocol. […]

UniProt O14744, sequence (O14744 whole entry): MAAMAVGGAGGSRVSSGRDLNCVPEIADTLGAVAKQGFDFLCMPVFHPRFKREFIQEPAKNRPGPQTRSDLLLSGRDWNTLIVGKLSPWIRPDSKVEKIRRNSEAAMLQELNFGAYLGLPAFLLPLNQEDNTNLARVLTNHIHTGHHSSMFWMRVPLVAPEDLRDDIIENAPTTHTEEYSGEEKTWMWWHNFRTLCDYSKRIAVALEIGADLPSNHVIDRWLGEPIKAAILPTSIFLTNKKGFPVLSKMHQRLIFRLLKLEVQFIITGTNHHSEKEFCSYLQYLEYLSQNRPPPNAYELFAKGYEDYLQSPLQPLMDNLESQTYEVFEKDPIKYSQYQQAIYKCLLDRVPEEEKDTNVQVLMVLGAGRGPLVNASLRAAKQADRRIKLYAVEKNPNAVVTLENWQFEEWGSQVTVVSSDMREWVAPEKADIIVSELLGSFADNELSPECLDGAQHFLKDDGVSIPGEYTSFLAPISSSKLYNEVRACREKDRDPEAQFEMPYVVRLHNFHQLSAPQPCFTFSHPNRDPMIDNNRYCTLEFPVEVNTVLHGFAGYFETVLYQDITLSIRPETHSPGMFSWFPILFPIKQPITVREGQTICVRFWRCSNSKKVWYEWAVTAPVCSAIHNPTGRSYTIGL
UniProt O14744, sequence (Q9BQA1 whole entry partner): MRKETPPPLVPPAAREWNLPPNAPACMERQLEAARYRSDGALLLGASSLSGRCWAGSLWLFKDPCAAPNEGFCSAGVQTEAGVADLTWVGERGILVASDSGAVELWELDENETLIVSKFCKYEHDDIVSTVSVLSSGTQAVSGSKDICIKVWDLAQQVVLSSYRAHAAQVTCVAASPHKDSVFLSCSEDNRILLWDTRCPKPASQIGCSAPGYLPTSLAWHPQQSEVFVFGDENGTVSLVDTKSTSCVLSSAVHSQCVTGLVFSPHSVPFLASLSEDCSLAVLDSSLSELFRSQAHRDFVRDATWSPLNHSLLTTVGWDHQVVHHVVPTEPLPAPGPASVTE

IC50 [nM]	Structure (SMILES)
90	O=C(NC1CC1)c1ccc(CN2CCN(C[C@H](O)CN3CCc4ccccc4C3)C2=O)nc1 [Example 50, (R)-N-Cyclopropyl-6-((3-(3-(3,4-di-hydroisoquinolin-2(1H)-yl)-2-hydroxypropyl)-2-oxoimidazolidin-1-yl)methyl)nicotinamide]
1550	O=C(c1cccnc1CN1CCN(C[C@H](O)CN2CCc3ccccc3C2)C1=O)N1CCCCC1 [Example 52, (R)-1-(3-(3,4-dihydroisoquinolin-2(1H)-yl)-2-hydroxypropyl)-3-((3-(piperidine-1-carbonyl)pyridin-2-yl)methyl)imidazolidin-2-one]
